# The supplement of paper PMC9174493
# The list shows a part of the results. Single values of this set are uncertain. Values with irradiation are relative to irradiated vehicle.
# Test system: A549-Dual
# Test: ISRE reporter (Lucia luciferase) activity, viability-corrected, relative to vehicle (fold change vs vehicle); higher = more activation of STING-IRF / NF-kB immune response reporter
# Conditions: 10 µM; irradiation: none
row,SMILES,ISRE reporter
1,Cc1nnc(SCC2=C(C(=O)O)N3C(=O)C(NC(=O)Cn4cc(Cl)c(=O)c(Cl)c4)C3SC2)s1 (configuration not stated) [Cefazedone],0.679
2,CC(C)(C)C(=O)OCOC(=O)C1N2C(=O)C(N=CN3CCCCCC3)C2SC1(C)C.Cl (configuration not stated) [Pivmecillinam hydrochloride],0.884
3,O=C(O)c1cc(=O)[nH]c(=O)[nH]1 [Orotic acid (6-Carboxyuracil)],0.67
4,CN(C)CCOC(=O)C(c1ccccc1)C1(O)CCCC1.Cl (configuration not stated) [Cyclopentolate Hydrochloride],0.612
5,OCC(O)C(O)C(OC1OC(CO)C(O)C(O)C1O)C(O)CO (configuration not stated) [Maltitol],0.57
6,[OH][Al]([OH])[OH] [Aluminium hydroxide],0.921
7,O=C(NCc1c(F)cc(F)cc1F)c1cn2c(c(O)c1=O)C(=O)N1C3CCC(C3)OC1C2 (configuration not stated) [Bictegravir],2.95
8,Cn1nnnc1SCC1=C(C(=O)[O-])N2C(=O)C(NC(=O)C(OC=O)c3ccccc3)C2SC1.[Na+] (configuration not stated) [Cefamandole nafate],0.896
9,CCC(NC(C)C)C(O)c1ccc(O)c2[nH]c(=O)ccc12.Cl (configuration not stated) [Procaterol HCl],0.646
10,CNCC(O)C(O)C(O)C(O)CO.CNCC(O)C(O)C(O)C(O)CO.O=C(O)CN1CCN2CCN(CC(=O)O)CC(=O)[O][Gd]([O]C(=O)C2)[O]C(=O)C1 [Gadopentetate Dimeglumine],0.633
11,O=C(C1CCCCC1)N1CC(=O)N2CCc3ccccc3C2C1 (configuration not stated) [Praziquantel],0.895
12,CC(=O)OCC(COC(C)=O)OC(C)=O [Triacetin],0.882
